In publication PMC4336329 (PLoS ONE, 2015):
Hit rate of the full screen: of about 310,000 compounds, about 2,200 (0.71%) showed an effect of 50% or more. Effects have a minus sign here. This is one part of the list.

What follows are molecules tested against human ether-à-go-go-related gene (hERG) potassium channel (human, UniProt Q12809) (assay: primary screen, population patch clamp on CHO cells stably expressing hERG).
human ether-à-go-go-related gene (hERG) potassium channel, sequence (Q12809 whole entry, looked up): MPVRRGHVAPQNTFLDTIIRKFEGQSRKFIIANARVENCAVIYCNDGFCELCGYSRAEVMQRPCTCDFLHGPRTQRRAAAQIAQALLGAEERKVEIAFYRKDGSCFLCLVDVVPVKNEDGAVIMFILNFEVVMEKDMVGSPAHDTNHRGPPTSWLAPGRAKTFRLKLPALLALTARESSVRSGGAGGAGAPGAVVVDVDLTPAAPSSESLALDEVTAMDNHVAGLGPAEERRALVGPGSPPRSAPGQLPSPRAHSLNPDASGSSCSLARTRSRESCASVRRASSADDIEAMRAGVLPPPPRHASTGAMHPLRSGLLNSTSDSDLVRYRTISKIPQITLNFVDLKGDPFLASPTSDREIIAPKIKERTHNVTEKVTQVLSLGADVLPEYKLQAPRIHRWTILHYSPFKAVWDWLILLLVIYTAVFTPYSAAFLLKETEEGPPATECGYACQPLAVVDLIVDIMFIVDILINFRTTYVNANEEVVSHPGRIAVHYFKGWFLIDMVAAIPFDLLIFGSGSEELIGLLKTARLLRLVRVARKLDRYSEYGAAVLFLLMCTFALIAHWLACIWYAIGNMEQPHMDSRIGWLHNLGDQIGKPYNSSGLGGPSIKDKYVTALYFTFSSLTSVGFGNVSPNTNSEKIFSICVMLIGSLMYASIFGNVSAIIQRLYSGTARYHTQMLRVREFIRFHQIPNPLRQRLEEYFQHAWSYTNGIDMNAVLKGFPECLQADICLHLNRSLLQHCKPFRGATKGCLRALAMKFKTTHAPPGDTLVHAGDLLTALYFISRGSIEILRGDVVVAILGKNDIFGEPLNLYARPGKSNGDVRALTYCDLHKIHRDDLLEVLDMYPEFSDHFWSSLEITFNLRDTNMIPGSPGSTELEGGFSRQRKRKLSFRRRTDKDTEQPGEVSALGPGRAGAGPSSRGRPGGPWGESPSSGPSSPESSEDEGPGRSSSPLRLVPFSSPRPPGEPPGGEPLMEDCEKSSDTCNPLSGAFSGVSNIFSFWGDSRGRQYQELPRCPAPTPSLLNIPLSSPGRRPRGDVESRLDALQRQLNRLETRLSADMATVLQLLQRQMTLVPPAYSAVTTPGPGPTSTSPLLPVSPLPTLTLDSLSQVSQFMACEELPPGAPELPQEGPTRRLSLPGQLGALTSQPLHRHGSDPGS

First: C/C(=N\NC(=O)c1ccccc1F)c1cccc(NC(=O)c2ccccc2)c1
Second: COC(=O)COc1cccc(NC(=O)c2ccccc2)c1
The “hERG current change (%, negative = inhibition) at 1uM” value of the first is lower: 1.71% for the first, 9.52% for the second.

Going from `CN1C2=C(C(=O)CC(C)(C)C2)C(c2cccs2)C2=C1CC(C)(C)CC2=O` to `CSCCC(C(=O)N1C[C@]2(C)C[C@H]1CC(C)(C)C2)N1C(=O)c2ccccc2C1=O` (stereo partly drawn), the “hERG current change (%, negative = inhibition) at 1uM” value falls from 9.37% to 8.43%.

Compared with `Cc1ccc(N(Cc2cc(=O)[nH]c3ccccc23)C(=O)C(C)C)c(C)c1`, `Cc1ccc(NC(=O)C(C)OC(=O)Cn2[nH]c(=O)c3ccccc3c2=O)cc1` (stereo not drawn) is higher in “hERG current change (%, negative = inhibition) at 1uM” value: 2.37% for the first, 14.4% for the second.

First: COc1cc(NC(=S)NCc2ccco2)cc(OC)c1
Second: COc1cc(NC(=O)CN(c2cc(C)cc(C)c2)S(=O)(=O)c2c(C)noc2C)cc(OC)c1
The “hERG current change (%, negative = inhibition) at 1uM” value of the first is higher: 11.7% for the first, 3.95% for the second.

Going from `Cc1ccc(-n2ncc3c(=O)[nH]c(SCC(=O)N4CCN(c5ccccc5)CC4)nc32)cc1` to `O=C(c1cc2nc(-c3ccco3)cc(C(F)(F)F)n2n1)N1CCN(c2ccc(F)cc2)CC1`, the “hERG current change (%, negative = inhibition) at 1uM” value falls from 7.21% to 0.738%.

First: O=C(CN1CCN(c2cccc(C(F)(F)F)c2)CC1)N(C1CC1)C1CCS(=O)(=O)C1 (stereo not drawn)
Second: CN1CCC(CN)(N2CCN(c3ccccc3)CC2)CC1
The “hERG current change (%, negative = inhibition) at 1uM” value of the first is lower: -16.7% for the first, 11.4% for the second.

Compared with `CN(C)c1nc2c(c(=O)[nH]c(=O)n2C)n1Cc1ccc(F)cc1`, `CCOC(=O)c1c(C)[nH]c(C(=O)OCC(=O)N(C)c2c(N)n(Cc3ccccc3)c(=O)[nH]c2=O)c1C` is higher in “hERG current change (%, negative = inhibition) at 1uM” value: 5.02% for the first, 8% for the second.

Compared with `COC(=O)[C@H](Cc1ccccc1)NC(=O)NCc1ccccc1`, `O=C1CN(C(=O)COC(=O)Cc2ccccc2)c2ccccc2N1` is higher in “hERG current change (%, negative = inhibition) at 1uM” value: 3.86% for the first, 9.97% for the second.

Going from `CN1CC(C(=O)c2ccc(F)cc2)C(c2ccc(F)cc2)C1` (stereo not drawn) to `[O-]/[N+](=C/c1ccc(F)cc1)c1ccccc1`, the “hERG current change (%, negative = inhibition) at 1uM” value rises from -4.82% to 6.23%.

Going from `COc1cccc(-c2nnn(CC(=O)N3CCCCC3)n2)c1` to `CSc1nc2ccccc2n1CC(=O)N1CCCCC1`, the “hERG current change (%, negative = inhibition) at 1uM” value falls from 7.13% to 2.94%.

First: NC(=O)CC(NC(=O)c1ccc(Br)cc1)c1ccc(N2CCN(c3ccc(F)cc3)CC2)c([N+](=O)[O-])c1 (stereo not drawn)
Second: O=C(NCCc1nnc2ccc(SCC(=O)N3CCCC3)nn12)c1ccc(F)cc1
The “hERG current change (%, negative = inhibition) at 1uM” value of the first is higher: 9.66% for the first, 7.7% for the second.

First: Cc1ccc(Nc2cnn(C34CC5CC(CC(CC(=O)O)(C5)C3)C4)c(=O)c2Cl)cc1
Second: Cc1ccc(NC2=NCCCCC2)cc1.Cl
The “hERG current change (%, negative = inhibition) at 1uM” value of the first is lower: 7.29% for the first, 15.6% for the second.

Compared with `CC(=O)c1cccc(NC(=O)C(Sc2ncnc3ccccc23)c2ccccc2)c1` (stereo not drawn), `O=C(CCNS(=O)(=O)c1ccccc1F)N1CCN(C(c2ccccc2)c2ccccc2)CC1` is lower in “hERG current change (%, negative = inhibition) at 1uM” value: 10.2% for the first, 8.42% for the second.

Going from `CCc1ccc(CN(C)Cc2nc(COc3ccccc3)no2)nc1` to `c1ccc(Cc2noc(CN3CCN(CCOc4ccccc4)CC3)n2)cc1`, the “hERG current change (%, negative = inhibition) at 1uM” value falls from 7% to 0.485%.

Compared with `COc1ccc(/C=C/C(=O)Nc2ccc(C(N)=O)cc2)cc1OC`, `COc1cc(OC)c(OC)cc1CN1CCN(S(=O)(=O)c2ccc(NC(C)=O)cc2)CC1.O=C(O)C(=O)O` is higher in “hERG current change (%, negative = inhibition) at 1uM” value: 13.1% for the first, 13.6% for the second.

First: Cn1c(CNC(=O)CCNC(=O)c2ccc(F)c(F)c2)cc(=O)n(C)c1=O
Second: CCN(CC)S(=O)(=O)c1ccc2c(c1)nc(CCC(=O)OCC(=O)Nc1c(F)cccc1F)n2C
The “hERG current change (%, negative = inhibition) at 1uM” value of the first is higher: 15.4% for the first, -3.23% for the second.

First: COc1cccc(NC(=O)c2cc(OC)c(OC)c(OC)c2Br)c1
Second: COc1cc(C(=S)N2CCOCC2)cc(OC)c1OC(=O)Cc1ccc(F)cc1
The “hERG current change (%, negative = inhibition) at 1uM” value of the first is lower: 12.2% for the first, 12.6% for the second.

Going from `N#Cc1nc(-c2ccco2)oc1NCCCN1CCOCC1` to `Cc1cc(NCCCN2CCOCC2)n2nc(C)c(-c3ccc(F)cc3)c2n1`, the “hERG current change (%, negative = inhibition) at 1uM” value falls from 1.69% to -0.809%.

Compared with `CCN(Cc1ccccc1)C(=O)CN1C(=O)COc2ccc(S(=O)(=O)NC3CCCC3)cc21`, `CCCNC(=O)C1CCC(CNS(=O)(=O)c2ccc3c(c2)N(C(C)=O)CCO3)CC1` (stereo not drawn) is higher in “hERG current change (%, negative = inhibition) at 1uM” value: -6.24% for the first, 12.7% for the second.

Compared with `NC(=O)COc1ccc(C2c3c(oc4ccccc4c3=O)C(=O)N2CC2CCCO2)cc1` (stereo not drawn), `CCOc1ccc(N(C(=O)CNC(=O)c2ccco2)C(C(=O)NCC2CCCO2)c2ccccc2)cc1` (stereo not drawn) is higher in “hERG current change (%, negative = inhibition) at 1uM” value: -5.51% for the first, 15% for the second.

Compared with `COc1ccc(/C=C2\SC(=S)N(CC(=O)NNC(=O)c3ccncc3)C2=O)cc1`, `CC(=O)Cc1nsc(NC(=O)c2cn(-c3ccccc3)nc2-c2ccc(Br)cc2)n1` is lower in “hERG current change (%, negative = inhibition) at 1uM” value: 11% for the first, 9.97% for the second.

Compared with `CC1=C(/C=C/C(=O)O)C(C)(C)CCC1`, `CCc1n[nH]c2c1/C(=N\O)CC(C)(C)C2` is higher in “hERG current change (%, negative = inhibition) at 1uM” value: 13.7% for the first, 13.9% for the second.

First: COc1ccc(-c2nc(C)c(C(C)=O)n2O)cc1[N+](=O)[O-]
Second: COc1ccccc1NC(=O)CSc1nnc(-c2ccoc2C)n1C
The “hERG current change (%, negative = inhibition) at 1uM” value of the first is lower: 10.5% for the first, 11.4% for the second.

Going from `COCCN1C(=O)N[C@@H](c2ccc(Br)cc2)C(C(=O)OC)=C1C` to `CC(C)c1nnc(NC(=O)c2ccc(N3C(=O)CCC3=O)cc2)s1`, the “hERG current change (%, negative = inhibition) at 1uM” value rises from -19.2% to 8.95%.

Going from `CCOc1ccccc1N1CCN(c2ncnc3scc(-c4ccc(OC)cc4)c23)CC1` to `CCn1cc(C(=O)O)c(=O)c2cnc(N3CCN(C(=S)Nc4ccccc4C(F)(F)F)CC3)nc21`, the “hERG current change (%, negative = inhibition) at 1uM” value rises from 8.7% to 10.5%.

Compared with `CCC(NS(=O)(=O)c1ccc2c(c1)NC(=O)C(C)C(=O)N2)c1cccs1` (stereo not drawn), `CCC(C(=O)Nc1cccnc1)n1c(=O)[nH]c2ccccc2c1=O` (stereo not drawn) is higher in “hERG current change (%, negative = inhibition) at 1uM” value: 10.6% for the first, 13.2% for the second.

First: Cc1ccccc1NS(=O)(=O)c1cc2c(cc1C)N(C)CCO2
Second: COC(=O)C1=C(Nc2ccccc2NS(=O)(=O)c2ccc(C(F)(F)F)cc2Cl)CSC1
The “hERG current change (%, negative = inhibition) at 1uM” value of the first is higher: 13% for the first, 11.4% for the second.

Going from `Cc1c(C)c(C)c2[nH]c(-c3ccc4c(c3)OCO4)nc2c1C` to `CCn1nc(C)c(/C=N/NC(=O)c2ccc3c(c2)c(C)c(C)n3Cc2ccccc2)c1C`, the “hERG current change (%, negative = inhibition) at 1uM” value falls from 16.8% to 6.88%.

Compared with `COc1ccc(CNC(=S)NC2CCCC2)cc1`, `O=C(CCC(=O)N(CC(=O)NC1CCCCC1)Cc1cccs1)Nc1nccs1` is higher in “hERG current change (%, negative = inhibition) at 1uM” value: 9.23% for the first, 11% for the second.

First: O=C(O)C1=C[C@H](c2csc3ccccc23)C[C@H](OCc2ccc(CO)cc2)O1
Second: CC(C)CCNC(=O)C1c2ccccc2Oc2ccccc21
The “hERG current change (%, negative = inhibition) at 1uM” value of the first is higher: 13.7% for the first, -12.1% for the second.

Compared with `CCCCC(C(=O)OCC)C(N)Cc1ccc(F)cc1.Cl` (stereo not drawn), `CCCCOc1ccccc1NC(=O)C=C(C)C` is lower in “hERG current change (%, negative = inhibition) at 1uM” value: 15.1% for the first, 7.26% for the second.

Compared with `COc1cc(CNc2ccc(CNc3ncn[nH]3)cc2)ccc1OCC(=O)NC(C)(C)C`, `Cc1ccnc(NS(=O)(=O)c2ccc(NC(=O)Cc3ccc(Cl)cc3)cc2)n1` is higher in “hERG current change (%, negative = inhibition) at 1uM” value: 9.9% for the first, 15.9% for the second.

Compared with `CCOC(=O)C1(CCCc2ccccc2)CCN(Cc2cnn(C)c2)CC1`, `O=[N+]([O-])c1cccc(CN2CCC(Cc3ccccc3)CC2)c1` is higher in “hERG current change (%, negative = inhibition) at 1uM” value: -46.4% for the first, -45.6% for the second.

Compared with `Cc1csc(NC(=O)CCNC(=O)c2ccccc2Cl)n1`, `CC(=O)c1sc(NC(=O)CCN2C(=O)C3CC=CCC3C2=O)nc1-c1ccccc1` (stereo not drawn) is lower in “hERG current change (%, negative = inhibition) at 1uM” value: 14.8% for the first, 0.74% for the second.

First: O=[N+]([O-])c1ccc2c(c1)nc1n2CCCCC1
Second: COc1cccc(C2=CC(=O)CCC2)c1
The “hERG current change (%, negative = inhibition) at 1uM” value of the first is lower: 4.91% for the first, 6.48% for the second.

First: CC(=O)Nc1ccc(-c2ccccc2)s1
Second: CC(=O)Nc1ccc(-c2nnc(SCc3ccc(C)cc3)n2C)cc1
The “hERG current change (%, negative = inhibition) at 1uM” value of the first is higher: 17.2% for the first, 10.2% for the second.

Compared with `CN(C)/C=C1/C(=O)NC(=O)N(CCNc2ncc(C(F)(F)F)cc2Cl)C1=O`, `CCOc1cc(/C=C2\NC(=O)NC2=O)cc([N+](=O)[O-])c1O` is lower in “hERG current change (%, negative = inhibition) at 1uM” value: 15.2% for the first, -7.26% for the second.

First: Cn1cc(-c2ccc(Cl)cc2)cc(C#N)c1=O
Second: CCc1cccc(C)c1N=Cc1c(O)c2ccccc2oc1=O
The “hERG current change (%, negative = inhibition) at 1uM” value of the first is lower: 10.2% for the first, 12.5% for the second.

Compared with `CC(C)=CCN1CCN(CC#Cc2ccccc2)CC1CCO` (stereo not drawn), `Cc1ccccc1N1CCN(C2CCCN(C(=O)CCn3cnnn3)C2)CC1` (stereo not drawn) is higher in “hERG current change (%, negative = inhibition) at 1uM” value: 4.36% for the first, 11.9% for the second.

Compared with `O=C(Nc1ccc2c(c1)CCC2)c1cnc(Cl)c(Cl)c1`, `O=C(NC1CCSc2ccccc21)c1cc(S(=O)(=O)N2CCOCC2)ccc1F` (stereo not drawn) is higher in “hERG current change (%, negative = inhibition) at 1uM” value: 2.47% for the first, 8.19% for the second.

First: Cc1[nH]cnc1CSCCN.Cl
Second: COC(=O)c1ccc(S(=O)(=O)NCCSc2nnc3c4ccccc4n(C)c3n2)cc1
The “hERG current change (%, negative = inhibition) at 1uM” value of the first is higher: 13% for the first, 1.09% for the second.

Compared with `OC(CN=c1sc2ccccc2n1CC(O)COc1ccccc1)COc1ccccc1` (stereo not drawn), `O=S(=O)(c1ccc(NC(=S)NN=C(Cc2ccccc2)Cc2ccccc2)cc1)N1CCOCC1` is higher in “hERG current change (%, negative = inhibition) at 1uM” value: 2.74% for the first, 11.4% for the second.

First: CN(Cc1c(C(=O)N/N=C/c2cccc(F)c2)nnn1-c1nonc1N)C1CCCCC1
Second: CC(C)NC(=O)C1CCN(C2CCN(Cc3ccc4cccc(F)c4n3)CC2)CC1
The “hERG current change (%, negative = inhibition) at 1uM” value of the first is higher: 26.7% for the first, 6.69% for the second.

In the case of `O=C(CN1C(=O)C2CC=CCC2C1=O)Nc1ccc(S(=O)(=O)N2CCOCC2)cc1` (stereo not drawn), the “hERG current change (%, negative = inhibition) at 1uM” value is reported as 15.6%.
